Data from the supplement of paper PMC11417369.
± gives the standard deviation of the averaged measurements. This is one part of the list.

Test system: PfAP2-LT AP2 domain (GST-tagged)
Experiment: gcPBM binding intensity (ln(normalized median fluorescence intensity)); higher = stronger DNA binding
How it was run: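 Binding of GST-tagged P. falciparum DNA-binding domains, expressed in E. coli and used at about 25 μg on average, was carried out for 1 h in 1× PBS containing 1% milk, 0.2 mg/ml BSA, 0.5% salmon testes DNA and 0.03% Triton X-100. The target was an Agilent 4 × 180k array of primer-extended double-stranded 36-bp intergenic genomic probes plus negative controls, read with Alexa488 anti-GST antibody at 488 nm. Binding intensity is the highest Masliner-normalised natural-log median intensity across replicate spots of either probe orientation.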

Row | Sequence | gcPBM binding intensity (ln)
1 | AAATTTTTTGTTCAATGTACTTTTTTATTATATTTT [XGTACX_site5298] | 8.76 ± 0.48
2 | GATATATAATATAATACACACATTTTATGAATGTAA [CACACA_site24] | 8.85 ± 0.33
3 | ATTTTTTAAATTTAAACACACATTTTGTATATGTTT [CACACA_site1654] | 8.99 ± 0.44
4 | TCTACTATTATATATTGTACAAATGATACTTATATT [XGTACX_site1819] | 8.82 ± 0.43
5 | AAAAAAAAAAAACATACACACATACATACAGATATA [CACACA_site4681] | 9.32 ± 0.36
6 | TTTCACTACACAAATACACACAAAAATATATGTGCA [CACACA_site2632] | 9.12 ± 0.22
7 | TTCTTTTTGAAACACACACACACAAGAAAATATATA [CACACA_site3110] | 9.65 ± 0.29
8 | TTCTATTTTATATGTGCACACATATACACCCACAAA [CACACA_site1130] | 9.3 ± 0.33
9 | TATAATTAAAATTTGTGTACGTATGACAAAACATTT [XGTACX_site7072] | 8.61 ± 0.45
10 | AGATACAAGCACTATAGTACACATACTAAAAATATA [XGTACX_site5849] | 8.98 ± 0.47
11 | TTTCCTTACCCTTTCCTGGTGTAGAAATTATACTCT [TGCATGCA_negctrl_site116] | 8.63 ± 0.52
12 | AAAAAAATAACAAAAGTGCATTTTTATGAGTTATCT | 8.65 ± 0.42
13 | ATATATAATTAATAAAGTACATTAATTATTTCTTTT [XGTACX_site3034] | 8.4 ± 0.51
14 | CATTTACCCTTATTAACACACAAAATAAAATACGCT [CACACA_site7249] | 8.9 ± 0.4
15 | AAATAACAAAAGAAGGTGCTCATAAAAATTCATACA [GTGCAC_site9864] | 8.79 ± 0.5
16 | AACAATAGTAAAAATACACACATTAAACTTCATTTC [CACACA_site2126] | 9.11 ± 0.36
17 | AAAAAAAAAAAAAAAAAAAAAAAAAAAAAAAAAAAA [CACACA_negctrl_site204] | 8.765 ± 0.0071
18 | AAATTATAAAAAAAAAAAAAAAAAAAAAAAAAAAAA [XGTACX_negctrl_site501] | 8.045 ± 0.05
19 | ATACAATGATATATACATATATATATATATATATAT [TGCATGCA_negctrl_site359] | 9.93 ± 0.45

Row | Sequence | gcPBM binding intensity (ln)
20 | ATATATATATATCACGCACACACGAATTTTAAATAT [CACACA_site3131] | 9.46 ± 0.27
21 | AAAAAAATTACGCAAGTGCATATAATTTAACAAAAA | 8.65 ± 0.41
22 | AATGGTAATCCACATACACACACACCGACACATATA [CACACA_site8876] | 9.91 ± 0.38
23 | ATCGCGAAGTAGCATTCACACACAGCAAAATATATA [CACACA_site9162] | 9.47 ± 0.43
24 | AACATTTATATAAAAGAACACACATATAAAATATTA [CACACA_site9199] | 8.87 ± 0.4
25 | ATATATACAACTAAAGAACACACATCATTGTTCATT [CACACA_site9224] | 8.95 ± 0.4
26 | AAACAATTTTTTAAAAGTACTTGAAAATTGTGAAAT [XGTACX_site2461] | 8.59 ± 0.54
27 | ACAAAATTTTTAAGAACACACAAAAATGTACTATCG [CACACA_site2550] | 8.69 ± 0.45
28 | GAAAGGACAAGAATAGTGCACATGCAATGTTATTTT [GTGCAC_site9985] | 9.21 ± 0.56
29 | AATCATGCTCCGGAAAGTACATAAATAAATAAATAA [XGTACX_site1690] | 8.85 ± 0.56
30 | AAAAAAAAAAAACATACACACATACATACATATATA [CACACA_site8222] | 9.26 ± 0.35
31 | CACATACACATACAAACACACATTATGTATATATAT [CACACA_site1599] | 9.31 ± 0.42
32 | CATATATAAATATGTACACACATATGTATGATCTCA [CACACA_site3868] | 9.07 ± 0.38
33 | TTATTTATAAGTAATATTATATATTCTTTTAATACA [CACACA_negctrl_site471] | 8.32 ± 0.48
34 | TTCTATATATTTGGAAGTACATTATATTTATTTTTT [XGTACX_site3172] | 8.51 ± 0.64
35 | TAAAATTTTTGTTTTTGTACGAAACATCAATTTTAC [XGTACX_site4963] | 8.68 ± 0.5
36 | AATGGTATAAACAATACACACATAATATAAATATTG [CACACA_site6878] | 9.03 ± 0.4
37 | TTATATATAAATGTGTGTACTTATAAAATAATCATT [XGTACX_site5370] | 8.78 ± 0.43
38 | AGATCTATTATTTTTTGTACTTATATATAAACTTAA [XGTACX_site1737] | 8.64 ± 0.44

Row | Sequence | gcPBM binding intensity (ln)
39 | ATAGGCAAAAAGTGTACACATTCATTTATATAAATA [CACACA_site4480] | 8.93 ± 0.44
40 | ATACATATATGTGTGTGTACATAAATGTATATATTT [XGTACX_site6242] | 9.53 ± 0.38
41 | GCATGGAACCATATATGTACATATATAAATAAATAA [XGTACX_site4996] | 8.91 ± 0.5
42 | AACTTTATTCCTAATTGTACACATATATATATATAT [XGTACX_site6823] | 9.2 ± 0.3
43 | GTATCTTTCAAAATATGTACATATATATATGTGTGT [XGTACX_site3512] | 9.31 ± 0.32
44 | ATTATACATATGTATGCACACATACATACACATATA [CACACA_site9155] | 9.22 ± 0.31
45 | AATAGTAAAAGATATACACACACCAAAAAATAGAAT [CACACA_site2289] | 9.86 ± 0.51
46 | TAATTTAAGAAAAAATGTACACAAATATAATAATAG [XGTACX_site8317] | 8.79 ± 0.56
47 | ATATATATATGTTTATGTACTTATAATAATATAACT [XGTACX_site4828] | 8.71 ± 0.36
48 | AAAAAAAATATCTATGCATGTAATATTATGATATTG [TGCATGCA_site546] | 8.63 ± 0.26
49 | TAACATTAAAATAAAAGTACTTAATAATATTAAGTA [XGTACX_site5920] | 8.54 ± 0.43
50 | TTAATAATAAATGAAAGTACATATAAAAAAAAAAAA [XGTACX_site717] | 8.66 ± 0.33
51 | CGTATAACATATGACACACACACATACATACACAAA [CACACA_site1803] | 9.84 ± 0.28
52 | GATTTATATAATTCAAGTACTAAAAATATTTTTAAT [XGTACX_site5285] | 8.3 ± 0.4
53 | TAAGACTATTAAAAAATTGAGTACATGAACTGTTCA [GTGCAC_negctrl_site670] | 8.41 ± 0.34
54 | AAATATAAAAAATATACACACATATATAATATATAT [CACACA_site2963] | 9.01 ± 0.4
55 | TGTATATTTGATTCATGTACATATTTTATTTTAACT [XGTACX_site5169] | 8.82 ± 0.56
56 | CAGATTTATTCAAACGCATGCTGTTTTAAAATAAAA [TGCATGCA_site874] | 8.4 ± 0.47
57 | CCTATATAATTATAATGTACTTGTAAAAAATATAAC [XGTACX_site2864] | 8.61 ± 0.33
